Experimental data: the supplement of paper PMC4604168 (melanoma cell lines)
Some of the results follow. Repeats are few or missing, and single values can be far off.

Experiments:
Test in all cases: cell count relative to DMSO control; melanoma cells; higher = more viable cells
Details in all cases: library dose: standard library concentration; 72 h
A101D = tested on: A101D
A2058 = tested on: A2058
A375 = tested on: A375
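Also: cells treated in 1,536-well plates, then fixed and DAPI-stained, with nuclei counted from automated high-throughput microscope images.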

Row | SMILES | cell count (A101D) | cell count (A2058) | cell count (A375)
1 | Cn1c(=O)n(-c2ccc(C(C)(C)C#N)cc2)c2c3cc(-c4cnc5ccccc5c4)ccc3ncc21 + O=C(O)c1ccc2c(c1)nc(Nc1cccc(Cl)c1)c1ccncc12 [CX4945] (first compound 0.02 µM, partner dose 2 µM) | 85% | 64.4% | 82.5%
2 | Cc1cn(-c2cc(NC(=O)c3ccc(C)c(Nc4nccc(-c5cccnc5)n4)c3)cc(C(F)(F)F)c2)cn1 [nilotinib] + C[C@]1(O)C[C@@H](c2nc(-c3ccc4ccc(-c5ccccc5)nc4c3)c3c(N)nccn32)C1 [OSI906] (first compound 1 µM, partner dose 2 µM) | 78.1% | 91.5% | 99.3%
3 | Cn1c(=O)n(-c2ccc(C(C)(C)C#N)cc2)c2c3cc(-c4cnc5ccccc5c4)ccc3ncc21 + Cc1cc(N2CCOCC2)cc2[nH]c(-c3c(NC[C@@H](O)c4cccc(Cl)c4)cc[nH]c3=O)nc12 [BMS536924] (first compound 0.02 µM, partner dose 1 µM) | 60% | 56.8% | 113%
4 | Cc1cn(-c2cc(NC(=O)c3ccc(C)c(Nc4nccc(-c5cccnc5)n4)c3)cc(C(F)(F)F)c2)cn1 [nilotinib] + Cc1cc(N2CCOCC2)cc2[nH]c(-c3c(NC[C@@H](O)c4cccc(Cl)c4)cc[nH]c3=O)nc12 [BMS536924] (first compound 1 µM, partner dose 1 µM) | 75.1% | 98.3% | 117%
5 | Cc1cc(Nc2cc(N3CCN(C)CC3)nc(/C=C/c3ccccc3)n2)n[nH]1 + CO[C@H]1C[C@@H]2CC[C@@H](C)[C@@](O)(O2)C(=O)C(=O)N2CCCC[C@H]2C(=O)O[C@H]([C@H](C)C[C@@H]2CC[C@@H](OCCO)[C@H](OC)C2)CC(=O)[C@H](C)/C=C(\C)[C@@H](O)[C@@H](OC)C(=O)[C@H](C)C[C@H](C)/C=C/C=C/C=C/1C [everolimus] (first compound 0.2 µM, partner dose 0.1 µM) | 70.5% | 45.5% | 84.1%
6 | CC(C)C[C@H](NC(=O)[C@H](Cc1ccccc1)NC(=O)c1cnccn1)B(O)O [Bortezomib] + C[C@@H](Oc1cc(-c2cnn(C3CCNCC3)c2)cnc1N)c1c(Cl)ccc(F)c1Cl [Crizotinib] (first compound 0.005 µM, partner dose 1 µM) | 12.8% | 17.4% | 79.6%
7 | Cc1cc(Nc2cc(N3CCN(C)CC3)nc(/C=C/c3ccccc3)n2)n[nH]1 + CN1CCN(c2ccc3nc(-c4c(N)c5c(F)cccc5[nH]c4=O)[nH]c3c2)CC1 [Dovitinib] (first compound 0.2 µM, partner dose 0.5 µM) | 73% | 37.7% | 74.1%
8 | Cn1c(=O)n(-c2ccc(C(C)(C)C#N)cc2)c2c3cc(-c4cnc5ccccc5c4)ccc3ncc21 + C[C@@H]1CCN(C(=O)CC#N)C[C@@H]1N(C)c1ncnc2[nH]ccc12 [CP690550] (first compound 0.02 µM, partner dose 5 µM) | 78.4% | 89% | 89.2%
9 | Cc1cc(Nc2cc(N3CCN(C)CC3)nc(/C=C/c3ccccc3)n2)n[nH]1 + CN(C)S(=O)(=O)c1ccc2c(c1)/C(=C/c1cc3c([nH]1)CCCC3)C(=O)N2 [SU6656] (first compound 0.2 µM, partner dose 2 µM) | 47.2% | 73.7% | 88.9%
10 | Cc1cn(-c2cc(NC(=O)c3ccc(C)c(Nc4nccc(-c5cccnc5)n4)c3)cc(C(F)(F)F)c2)cn1 [nilotinib] + Nc1cccc2c1CN(C1CCC(=O)NC1=O)C2=O [lenalidomide] (first compound 1 µM, partner dose 5 µM) | 98.4% | 119% | 127%
11 | Cc1cn(-c2cc(NC(=O)c3ccc(C)c(Nc4nccc(-c5cccnc5)n4)c3)cc(C(F)(F)F)c2)cn1 [nilotinib] + C=C(c1ccc(C(=O)O)cc1)c1cc2c(cc1C)C(C)(C)CCC2(C)C [Bexarotene] (first compound 1 µM, partner dose 10 µM) | 83.4% | 96.3% | 142%
12 | Cn1c(=O)n(-c2ccc(C(C)(C)C#N)cc2)c2c3cc(-c4cnc5ccccc5c4)ccc3ncc21 + O=C(Nc1cccc(Cl)c1)Nc1ncc(CCNc2ncnc3ccsc23)s1 [SNS314] (first compound 0.02 µM, partner dose 0.004 µM) | 72.4% | 68.1% | 64%
